This is an account of results in PubChem BioAssay (NCI).

The experiment concerns NCI-H322M lung. Nature of the experiment: NCI tumour cell line growth inhibition, 48 h.

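Each compound was tested at five concentrations against cells in 96-well plates for 48 hours. GI50 is the concentration that inhibits growth by half. TGI: concentration producing complete growth inhibition.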

Regarding `CCC(CC)N1C(=O)/C(=c2\sc3n(c2=O)C2C(NN=3)N(CC)C(=O)N2CC)c2ccccc21` (centres undefined), the GI50 was 10.4 µM and the TGI is 69.5 µM.

In the case of `Cc1cc(F)cc(NS(=O)(=O)c2ccc(-c3cnc(C4CC4)o3)cc2)c1`, the GI50 was 0.883 µM and the TGI was 22.2 µM.
